Screen size: about 410,000 compounds; about 5,000 (1.2%) were called active. Inconclusive means that the source gave no clear call. Such entries were picked first, then a sample of the others. The call rests on the fitted dose curve; in most records, active means well fitted inhibition curve with a large enough effect; inconclusive means small, poorly fitted or top-dose-only effect; inactive means no such curve, though single readings can be large or run the other way. Where the call is inconclusive, the potency comes from a doubtful curve fit.
Test: qHTS for Inhibitors of TGF-b; further: nearly all actives have a fitted effect of over 65% in size
Details: HepG2 CAGA-GFP TGF-b/SMAD3 reporter, GFP fluorescence, 18 h, TGF-beta stimulated, 500 pg/mL final; series mostly up to 46.1 µM; activity, negative = inhibition: at the top concentration
Procedure, shortened: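 Inhibition was scored as loss of TGF-beta-induced (500 pg/mL final, 18 hours, 37 degrees C) GFP in HEPG2 cells carrying a CAGA-GFP reporter, in DMEM with 1% FBS. Well GFP was summed per cell; Activity was normalised to unstimulated and stimulated DMSO wells, then concentration-response fitting.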
On the % scale 0 is the no-effect control and ±100 the full control effect; potency means the concentration at half of the fitted maximal effect; tags describe the fitted curve by direction and shape.

Row | SMILES | Potency | activity, negative = inhibition
1 | COC(=O)c1cc(NC(=S)NCc2ccc(Cl)cc2)cc(C(=O)OC)c1 | inconclusive: 7.94 µM [inhibitor, partial curve, poor fit] | 
2 | CCc1cccc(C)c1Nc1c(-c2cccs2)nc2ncccn12 | inconclusive: 10 µM [inhibitor, partial curve, poor fit] | 
3 | Cc1cc(C)c(S(=O)(=O)NCC(c2ccco2)S(=O)(=O)c2ccccc2)c(C)c1 (stereo unspecified) |  | inactive: -2.29%
4 | O=S(=O)(Nc1ccc(OC(F)(F)F)cc1)c1ccc(N2CCCCS2(=O)=O)cc1 | inconclusive: 7.08 µM [inhibitor, full curve] | 
5 | CCOC(=O)c1ccccc1NC(=O)Cc1ccc(OC)c(S(=O)(=O)N2CCOCC2)c1 |  | inactive: -2.26%
6 | Cc1cccc(Nc2nnc(SCC(=O)c3ccc(O)cc3O)s2)c1 | inconclusive: 35.5 µM [inhibitor, single point] | 
7 | COc1ccc(S(=O)(=O)N2CCCCCC2)cc1C(=O)Nc1ccc(C)cn1 |  | inactive: -19.9%
8 | COc1ccc(Cc2nc3ccc(C(=O)N4CCCC4)cc3o2)cc1 |  | inactive: -1.22%
9 | Cc1nc2ccccc2n1/N=C/c1ccc([N+](=O)[O-])o1 | active: 11.2 µM | 
10 | COc1ccc(OC)c(/C=C/c2ccccc2)c1 |  | inactive: 3.38%
11 | O=C(NNS(=O)(=O)c1cccc(Cl)c1Cl)c1cccc(S(=O)(=O)N2CCOCC2)c1 |  | inactive: -0.0383%
12 | NS(=O)(=O)c1ccc(NS(=O)(=O)/C=C/c2ccccc2)cc1 | inconclusive: 22.4 µM [inhibitor, single point] | 
13 | COc1cccc(C(O)c2ncc(-c3cccc(C(F)(F)F)c3)[nH]2)c1 (stereo unspecified) |  | inactive: 4.53%
14 | Cc1ccc(NC(=O)C2CCC(CNS(=O)(=O)c3cccs3)CC2)cc1C (stereo unspecified) | inconclusive: 6.31 µM [inhibitor, single point] | 
15 | CNc1snc(C)c1C(=O)OCC(=O)c1ccc(OC)c(F)c1 |  | inactive: -6.68%
16 | COc1ccc(-c2nnn(CC(=O)N(CC(=O)NC3CCCC3)c3ccccc3)n2)cc1OC | inconclusive: 1.26 µM [inhibitor, partial curve, poor fit] | 
17 | COc1cccc(-n2c(C)nc3c(cnn3-c3ccc(C)c(C)c3)c2=O)c1 | inconclusive: 8.91 µM [inhibitor, partial curve, poor fit] | 
18 | Cc1ccc(Cn2c(C)c3cnn(CC(=O)N4CCN(c5cc(C)ccc5C)CC4)c(=O)c3c2C)cc1 |  | inactive: -23%
19 | O=c1oc2ccc(Cl)cc2cc1-c1nc(-c2cccs2)no1 | inconclusive: 0.112 µM [inhibitor, full curve, poor fit] | 
20 | O=C(/C=C/c1ccc2c(c1)OCCO2)c1ccccc1 | inconclusive: 15.8 µM [inhibitor, partial curve, poor fit] | 
21 | COc1ccc(-c2csc(NC(=S)NC(=O)c3ccco3)n2)cc1Br |  | inactive: -4.26%
22 | CC(C)[C@H](NC(=O)N1CCn2c1nc1ccccc12)C(=O)NCc1ccccc1Cl | inconclusive: 15.8 µM [inhibitor, single point] | 
23 | O=C1CCc2cc(S(=O)(=O)NCc3ccccc3Cl)ccc2N1 | inconclusive: 5.62 µM [inhibitor, single point] | 
24 | COc1cc(CCC(=O)OCC(=O)N2CCc3ccccc32)cc(OC)c1OC |  | inactive: -5.66%
25 | CC(=O)Nc1ccc(Oc2ccc([N+](=O)[O-])cc2Cl)cc1 | inconclusive: 2.82 µM [inhibitor, full curve] | 
26 | CCn1c2ccccc2c2cc(Nc3cc(C)nc4ncnn34)ccc21 | inconclusive: 3.55 µM [inhibitor, partial curve, poor fit] | 

Row | SMILES | Potency | activity, negative = inhibition
27 | CC(=O)Nc1ccc(S(=O)(=O)NC2(C(F)(F)F)C(=O)Nc3c2c(=O)[nH]c(=O)n3-c2ccc(C)cc2)cc1 (stereo unspecified) |  | inactive: -6.7%
28 | CCN(CC)C(=O)CSc1nc2sc3c(c2c(=O)n1CCOC)CCC3 |  | inactive: 5.44%
29 | CCN(CC(=O)NCc1cccs1)C(=O)CCCOc1ccc(C(C)(C)C)cc1 | inconclusive: 12.6 µM [inhibitor, single point] | 
30 | COc1cc(C)ccc1OCc1cc(C(=O)N(Cc2c(C)nn(C)c2C)C2CC2)no1 |  | inactive: -20.7%
31 | CCOC(=O)C1C(=O)CC(C)(O)C(C(=O)OCC)C1c1ccc([N+](=O)[O-])cc1 (stereo unspecified) |  | inactive: -8.6%
32 | Cc1nc(-c2ccccn2)nc(SCC(=O)c2ccccc2)c1Cl | inconclusive: 12.6 µM [inhibitor, single point] | 
33 | CCCCn1cnc2c(oc3ccccc32)c1=O |  | inactive: -1.11%
34 | CC1(C)CC2CC(C)(CN2C(=O)C23CCC(C)(C(=O)O2)C3(C)C)C1 (stereo unspecified) |  | inactive: -9.73%
35 | Cc1ccc(C(=O)CC2(O)C(=O)N(CCc3ccccc3)c3ccc(Br)cc32)cc1 (stereo unspecified) | inconclusive: 35.5 µM [inhibitor, single point] | 
36 | CC(=O)c1c(C)[nH]c(C(=O)OCC(=O)NCC(C)C)c1C | inconclusive: 8.91 µM [inhibitor, partial curve, poor fit] | 
37 | Cc1onc(-c2c(Cl)cccc2Cl)c1C(=O)N1CCc2ccccc2C1 | inconclusive: 6.31 µM [inhibitor, full curve, poor fit] | 
38 | COC(=O)c1ccc(CSc2nnc(C)n2N)o1 |  | inactive: 1.26%
39 | CC(C(=O)NCc1ccccc1)n1ccc2cc(S(=O)(=O)N3CCCC3)ccc21 (stereo unspecified) |  | inactive: -0.729%
40 | CCOc1ccccc1CNC(=O)CCc1cn(C)c2ccccc12 | inactive | 
41 | O=C(Nc1cc(Br)ccc1O)C1CC(c2ccccc2Cl)=NO1 (stereo unspecified) | active: 15.8 µM | 
42 | CC(C)CC(NC(=O)c1ccc(Cl)cc1)C(=O)OCC(=O)c1ccc2c(c1)NC(=O)CO2 (stereo unspecified) | active: 11.2 µM | 
43 | Cc1ccc(-c2[nH]ncc2CNCCc2cnn(-c3ccccc3)c2)cc1C | inconclusive: 35.5 µM [inhibitor, single point] | 
44 | CCCOc1ccc(CC2C(=O)Nc3ccc(Br)cc32)cc1 (stereo unspecified) | active: 11.2 µM | 
45 | CCC(C)Sc1cccc(-c2nc3ccc(C)cn3c2NCc2ccccc2)c1 (stereo unspecified) | active: 10 µM | 
46 | Cc1ccc(C(=O)NCc2ccc(Cl)cc2)cc1S(=O)(=O)N1CCCCC1 | inconclusive: 35.5 µM [inhibitor, single point] | 
47 | COc1ccc(-c2ccc(OC)c([C@H]3[C@H]4C=CC[C@@H](C)[C@@H]4C(=O)N3Cc3ccccc3)c2)cc1OC |  | inactive: -5.41%
48 | Cc1ccc(N2CCn3c2nc2c3c(=O)n(Cc3cccc(Cl)c3)c(=O)n2C)cc1C |  | inactive: -29.5%
49 | COc1cc(C=NO)nc(-c2ccccn2)c1 | inconclusive: 28.2 µM [inhibitor, single point] | 
50 | CN(C)CCCN(C(=O)c1ccc2c(c1)CCCC2)c1nc2cc3c(cc2s1)OCO3 | inconclusive: 17.8 µM [inhibitor, single point] | 
51 | O=C(c1cc(S(=O)(=O)N2CCCC2)c(Cl)cc1Cl)N1CCCC1 |  | inactive: 10.5%
52 | Cc1ccc(-c2nn3c(C)nnc3s2)cc1NC(=O)CSc1ccc(Cl)cc1 |  | inactive: 16.3%

Row | SMILES | Potency | activity, negative = inhibition
53 | Cc1cc(Cl)ccc1OCC(=O)N(Cc1cccs1)C1CCS(=O)(=O)C1 (stereo unspecified) |  | inactive: -7.54%
54 | COc1ccc(NC(=O)Cn2c(=O)n(Cc3ccco3)c(=O)c3sc4ccccc4c32)cc1Cl |  | inactive: 20.5%
55 | CC(=O)Nc1ccc(NC(=O)c2ccccc2Br)cc1 |  | inactive: 6.71%
56 | C=CCCN([C@H](CO)Cc1ccccc1)S(=O)(=O)c1ccccc1Br | inconclusive: 35.5 µM [inhibitor, single point] | 
57 | COc1cc2c(cc1OC)CN(C(=O)COc1ccccc1C#N)CC2 | inconclusive: 14.1 µM [inhibitor, single point] | 
58 | Cc1ccc(S(=O)(=O)NC(=O)C2(C)CCN2C(=O)Cc2cccs2)cc1 (stereo unspecified) |  | inactive: 2.02%
59 | Cc1ccc(C(=O)NCCNC(=O)c2ccco2)cn1 |  | inactive: 31%
60 | O=c1c2cccc3c2c(nn1CN1CCOCC1)-c1ccccc1-3 |  | inactive: -16.6%
61 | COC(=O)c1cc(OC)c(OC)cc1NCC(=O)Nc1cccc(C(F)(F)F)c1 |  | inactive: -44.9%
62 | COc1ccc(-c2[nH]c(-c3ccc(C)cc3)nc2SCC(=O)NCC2CCCO2)cc1 (stereo unspecified) |  | inactive: -29.6%
63 | O=C(NCCc1ccc(C(F)(F)F)cc1)C1CC(=O)N(c2ccc3c(c2)OCCO3)C1 (stereo unspecified) |  | inactive: -10.6%
64 | COc1ccccc1CNCC(O)Cn1c2ccccc2c2ccccc21 (stereo unspecified) | inconclusive: 35.5 µM [inhibitor, single point] | 
65 | COc1cccc(NC(=O)CSc2nc(=O)[nH]c3c2CCCC3)c1 |  | inactive: -5.52%
66 | O=C(c1cccs1)N1C[C@@H](O)[C@H](n2cc(C3CC3)nn2)C[C@@H]1c1ccc(Cl)cc1 |  | inactive: -11.8%
67 | Cc1cc(NC(=O)CCS(=O)(=O)c2ccc3c(c2)NC(=O)C(C)S3)ccc1Br (stereo unspecified) | active: 11.2 µM | 
68 | Cc1cc(OCc2cc(C(=O)NCc3csc(C(C)C)n3)no2)cc(C)c1Cl | inconclusive: 28.2 µM [inhibitor, single point] | 
69 | Cc1cc(C)c(-c2n[nH]c3c2C(c2ccccc2F)N(CCO)C3=O)c(O)c1 (stereo unspecified) | inconclusive: 35.5 µM [inhibitor, single point] | 
70 | Cc1ccc(-c2nc(-c3ccncc3)no2)cc1 |  | inactive: 0%
71 | Cc1nccn1C[C@@H]1CCc2c(c3ccccc3n2C)C1=O |  | inactive: 2.05%
72 | OC(c1cccc(Cl)c1)c1ncc(-c2ccc3ccccc3c2)[nH]1 (stereo unspecified) | inconclusive: 35.5 µM [inhibitor, single point] | 
73 | Cc1ccc(C(C)C)c(OCC(=O)Nc2cccc(S(=O)(=O)NC3=NCCCCC3)c2)c1 | inconclusive: 35.5 µM [inhibitor, partial curve, poor fit] | 
74 | Cc1ccn2cc(-c3cccc(S(=O)(=O)N4CC(C)OC(C)C4)c3)nc2c1 (stereo unspecified) | inconclusive: 15.8 µM [inhibitor, partial curve, poor fit] | 
75 | CCOc1cc(C2CC(=O)c3c(ccc4ccccc34)N2)ccc1O (stereo unspecified) | inconclusive: 12.6 µM [inhibitor, partial curve] | 
76 | CCn1cc(/C=C(\NC(=O)c2ccc(C)cc2)C(=O)NCCN2CCOCC2)c2ccccc21 | inconclusive: 35.5 µM [inhibitor, single point] | 

Source: PubChem BioAssay AID588855 (National Center for Advancing Translational Sciences (NCATS), 2011)
